# Measurements: the supplement of paper PMC8728848
# This is one part of the list.
# Assays:
# Assay in all cases: glycan array binding signal (z-score within array); higher = stronger binding
# Conditions in all cases: glycan notation: IUPAC condensed, linker removed
# Fuc(a1-3)GlcNAc = biological target: Fuc(a1-3)GlcNAc
# In short: (§1)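 Glycan array binding is given as a within-array Z-score, which can be read as non-binding when negative. The arrays, 3228 of them, came from the Consortium for Functional Glycomics database and were retained only where the protein sequence was available. Z-scores were averaged across arrays of the same protein sequence at different concentrations or buffers and across linkers.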
# [1] = biological target: Fuc(a1-3)[Gal(b1-4)]Glc6S
# In short: as §1
# [2] = biological target: Fuc(a1-3)[Gal(b1-4)]GlcNAc
# In short: as §1
# [3] = biological target: Fuc(a1-3)[Gal(b1-4)]GlcNAc(b1-2)Man
# In short: as §1
# [4] = biological target: Fuc(a1-3)[Gal(b1-4)]GlcNAc(b1-2)Man(a1-3)[Fuc(a1-3)[Gal(b1-4)]GlcNAc(b1-2)Man(a1-6)]Man(b1-4)GlcNAc(b1-4)GlcNAc
# In short: as §1
# [5] = biological target: Fuc(a1-3)[Gal(b1-4)]GlcNAc(b1-2)Man(a1-3)[Fuc(a1-3)[Gal(b1-4)]GlcNAc(b1-2)Man(a1-6)]Man(b1-4)GlcNAc(b1-4)[Fuc(a1-6)]GlcNAc
# In short: as §1
# [6] = biological target: Fuc(a1-3)[Gal(b1-4)]GlcNAc(b1-3)Gal(b1-3)[Fuc(a1-4)]GlcNAc
# In short: as §1
# [7] = biological target: Fuc(a1-3)[Gal(b1-4)]GlcNAc(b1-3)Gal(b1-4)[Fuc(a1-3)]GlcNAc
# In short: as §1
# [8] = biological target: Fuc(a1-3)[Gal(b1-4)]GlcNAc(b1-3)Gal(b1-4)[Fuc(a1-3)]GlcNAc(b1-3)Gal(b1-4)[Fuc(a1-3)]GlcNAc
# In short: as §1
# [9] = biological target: Fuc(a1-3)[Gal(b1-4)]GlcNAc(b1-3)GalNAc
# In short: as §1
# [10] = biological target: Fuc(a1-3)[Gal(b1-4)]GlcNAc(b1-6)GalNAc
# In short: as §1
# [11] = biological target: Fuc(a1-3)[Gal(b1-4)]GlcNAc(b1-6)[Gal(b1-3)GlcNAc(b1-3)]Gal(b1-4)Glc
# In short: as §1
# [12] = biological target: Fuc(a1-3)[Gal(b1-4)]GlcNAc6S
# In short: as §1
# [13] = biological target: Fuc(a1-3)[Gal3S(b1-4)]Glc
# In short: as §1
# [14] = biological target: Fuc(a1-3)[Gal3S(b1-4)]GlcNAc
# In short: as §1
# [15] = biological target: Fuc(a1-3)[Gal3S(b1-4)]GlcNAc6S
# In short: as §1
# [16] = biological target: Fuc(a1-3)[GalNAc(b1-4)]GlcNAc
# In short: as §1
# [17] = biological target: Fuc(a1-3)[GalNAc(b1-4)]GlcNAc6S
# In short: as §1
# Fuc(a1-4)GlcNAc = biological target: Fuc(a1-4)GlcNAc
# In short: as §1
# Fuc(b1-3)GlcNAc = biological target: Fuc(b1-3)GlcNAc
# In short: as §1
# Gal(a1-2)Gal = biological target: Gal(a1-2)Gal
# In short: as §1
# Gal(a1-3)Gal = biological target: Gal(a1-3)Gal
# In short: as §1
# Gal(a1-3)Gal(b1-3)GlcNAc = biological target: Gal(a1-3)Gal(b1-3)GlcNAc
# In short: as §1
# [18] = biological target: Gal(a1-3)Gal(b1-3)GlcNAc(b1-2)Man
# In short: as §1
# [19] = biological target: Gal(a1-3)Gal(b1-3)GlcNAc(b1-2)Man(a1-3)[Gal(a1-3)Gal(b1-3)GlcNAc(b1-2)Man(a1-6)]Man(b1-4)GlcNAc(b1-4)GlcNAc
# In short: as §1
# [20] = biological target: Gal(a1-3)Gal(b1-3)GlcNAc(b1-3)GalNAc
# In short: as §1
# [21] = biological target: Gal(a1-3)Gal(b1-3)GlcNAc(b1-6)GalNAc
# In short: as §1
# [22] = biological target: Gal(a1-3)Gal(b1-3)[Fuc(a1-4)]GlcNAc(b1-2)Man(a1-3)[Gal(a1-3)Gal(b1-3)[Fuc(a1-4)]GlcNAc(b1-2)Man(a1-6)]Man(b1-4)GlcNAc(b1-4)GlcNAc
# In short: as §1
# Gal(a1-3)Gal(b1-4)Glc = biological target: Gal(a1-3)Gal(b1-4)Glc
# In short: as §1
# Gal(a1-3)Gal(b1-4)GlcNAc = biological target: Gal(a1-3)Gal(b1-4)GlcNAc
# In short: as §1
binder,measurement,setting,value
Clone730PsrP (Streptococcus pneumoniae) (protein) MDHHHHHHHHHHASENLYFQGAMVVGSQTAAATEATAKKVEEDRKKPASDYVASVTNVNLQSYAKRRKRSVDSIEQLLASIKNAAVFSGNTIVNGAPAINASLNIAKSETKVYTGEGVDSVYRVPIYYKLKVTNDGSKLTFTYTVTYVNPKTNDLGNISSMRPGYSIYNSGTSTQTMLTLGSDLGKPSGVKNYITDKNGRQVLSYNTSTMTTQGSGYTWGNGAQMNGFFAKKGYGLTSSWTVPITGTDTSFTFTPYAARTDRIGINYFNGGGKVVESSTT,glycan array binding signal (z-score),Fuc(a1-3)GlcNAc,-0.124
same,glycan array binding signal (z-score),[1],0.699
same,glycan array binding signal (z-score),[2],0.039
same,glycan array binding signal (z-score),[3],-0.286
same,glycan array binding signal (z-score),[4],-0.095
same,glycan array binding signal (z-score),[5],-0.534
same,glycan array binding signal (z-score),[6],-0.389
same,glycan array binding signal (z-score),[7],0.521
same,glycan array binding signal (z-score),[8],0.45
same,glycan array binding signal (z-score),[9],0.297
same,glycan array binding signal (z-score),[10],-0.191
same,glycan array binding signal (z-score),[11],-0.099
same,glycan array binding signal (z-score),[12],0.668
same,glycan array binding signal (z-score),[13],-0.542
same,glycan array binding signal (z-score),[14],-0.136
same,glycan array binding signal (z-score),[15],-0.414
same,glycan array binding signal (z-score),[16],0.389
same,glycan array binding signal (z-score),[17],0.499
same,glycan array binding signal (z-score),Fuc(a1-4)GlcNAc,0.463
same,glycan array binding signal (z-score),Fuc(b1-3)GlcNAc,0.268
same,glycan array binding signal (z-score),Gal(a1-2)Gal,-0.461
same,glycan array binding signal (z-score),Gal(a1-3)Gal,-0.402
same,glycan array binding signal (z-score),Gal(a1-3)Gal(b1-3)GlcNAc,-0.675
same,glycan array binding signal (z-score),[18],-0.457
same,glycan array binding signal (z-score),[19],0.105
same,glycan array binding signal (z-score),[20],-0.088
same,glycan array binding signal (z-score),[21],-0.385
same,glycan array binding signal (z-score),[22],-0.371
same,glycan array binding signal (z-score),Gal(a1-3)Gal(b1-4)Glc,-0.471
same,glycan array binding signal (z-score),Gal(a1-3)Gal(b1-4)GlcNAc,-0.387
